Some of the results follow. Each Rep nickase domain was tested in vitro on the same pool of single strands (3 µM enzyme, 1 h, 37 °C); shown is the middle of each 90-letter strand. A value is the log2 ratio of uncut reads to the pool without enzyme; the lower, the more was cut; hits are not called. Counts are relative to all reads; values above 0 arise when much of the pool is cut.
Experiments:
Experiment in all cases: uncleaved DNA left, log2 of reads against the no-enzyme library (log2 ratio); higher = less cleavage (more negative = more Rep cleavage of the k-mer); sequences stand for … in CTCGTCCG…ACCGGAGA
[1] = test system: T1, Rep nickase domain of Muscovy duck circovirus
T1 sequence (protein, residues 1-111, tag omitted): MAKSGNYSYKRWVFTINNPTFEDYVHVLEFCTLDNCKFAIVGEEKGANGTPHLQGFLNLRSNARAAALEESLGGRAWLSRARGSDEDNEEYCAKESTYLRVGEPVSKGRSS
Procedure: (§1)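 A pool of 90-nt single-stranded DNAs with seven random bases just before the constant AC of the nick site (name = the seven bases) was cut by 3 µM recombinant His6-SUMO-tagged Rep nickase domain (300 nM DNA, 50 mM HEPES pH 8.0, 50 mM NaCl, 1 mM MnCl2, 1 h, 37 °C, three replicates). Uncut DNA was amplified and sequenced.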

[2] = test system: T2, Rep nickase domain of banana bunchy top virus
T2 sequence (protein, residues 1-94, tag omitted): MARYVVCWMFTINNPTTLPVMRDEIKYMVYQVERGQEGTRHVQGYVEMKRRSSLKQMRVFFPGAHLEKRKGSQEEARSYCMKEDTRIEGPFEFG
Procedure: as §1

[3] = test system: T3, Rep nickase domain of cabbage leaf curl virus
T3 sequence (protein, residues 1-116, tag omitted): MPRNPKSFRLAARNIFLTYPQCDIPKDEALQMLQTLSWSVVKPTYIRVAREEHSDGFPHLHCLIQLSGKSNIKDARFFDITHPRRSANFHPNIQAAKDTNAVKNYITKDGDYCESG
Procedure: as §1

[4] = test system: T4, Rep nickase domain of chickpea chlorotic dwarf virus
T4 sequence (protein, residues 1-124, tag omitted): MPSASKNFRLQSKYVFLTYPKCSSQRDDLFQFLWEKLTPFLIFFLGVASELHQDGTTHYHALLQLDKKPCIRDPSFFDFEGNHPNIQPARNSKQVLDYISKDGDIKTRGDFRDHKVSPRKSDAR
Procedure: as §1

[5] = test system: T5, Rep nickase domain of faba bean necrotic yellows virus
T5 sequence (protein, residues 1-98, tag omitted): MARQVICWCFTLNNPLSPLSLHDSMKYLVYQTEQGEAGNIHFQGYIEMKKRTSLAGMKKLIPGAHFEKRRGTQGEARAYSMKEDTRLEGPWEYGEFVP
Procedure: as §1

[6] = test system: T6, Rep nickase domain of maize striate mosaic virus
T6 sequence (protein, residues 1-117, tag omitted): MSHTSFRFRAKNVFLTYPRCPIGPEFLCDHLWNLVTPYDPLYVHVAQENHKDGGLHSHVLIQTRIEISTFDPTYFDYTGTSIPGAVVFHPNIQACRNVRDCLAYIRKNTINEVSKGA
Procedure: as §1

[7] = test system: T7, Rep nickase domain of porcine circovirus 2
T7 sequence (protein, residues 2-116, tag omitted): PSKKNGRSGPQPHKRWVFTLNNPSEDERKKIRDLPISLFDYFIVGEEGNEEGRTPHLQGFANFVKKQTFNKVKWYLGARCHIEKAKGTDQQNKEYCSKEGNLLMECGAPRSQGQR
Procedure: as §1

[8] = test system: T8, Rep nickase domain of tomato golden mosaic virus
T8 sequence (protein, residues 1-124, tag omitted): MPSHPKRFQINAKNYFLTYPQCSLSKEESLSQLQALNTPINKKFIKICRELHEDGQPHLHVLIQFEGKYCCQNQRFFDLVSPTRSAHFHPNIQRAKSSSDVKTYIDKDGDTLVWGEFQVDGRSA
Procedure: as §1

[9] = test system: T9, Rep nickase domain of tomato yellow leaf curl virus
T9 sequence (protein, residues 1-136, tag omitted): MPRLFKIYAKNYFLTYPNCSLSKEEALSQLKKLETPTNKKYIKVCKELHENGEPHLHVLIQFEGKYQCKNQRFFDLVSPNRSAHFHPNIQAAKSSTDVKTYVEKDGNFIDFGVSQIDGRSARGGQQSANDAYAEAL
Procedure: as §1

[10] = test system: T10, Rep nickase domain of wheat dwarf virus
T10 sequence (protein, residues 1-137, tag omitted): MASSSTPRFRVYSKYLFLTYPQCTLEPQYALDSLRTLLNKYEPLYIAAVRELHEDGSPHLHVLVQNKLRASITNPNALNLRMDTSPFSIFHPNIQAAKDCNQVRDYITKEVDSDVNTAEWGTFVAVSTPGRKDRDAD
Procedure: as §1

| Sequence | uncleaved DNA left (log2) [1] | uncleaved DNA left (log2) [2] | uncleaved DNA left (log2) [3] | uncleaved DNA left (log2) [4] | uncleaved DNA left (log2) [5] | uncleaved DNA left (log2) [6] | uncleaved DNA left (log2) [7] | uncleaved DNA left (log2) [8] | uncleaved DNA left (log2) [9] | uncleaved DNA left (log2) [10] |
| --- | --- | --- | --- | --- | --- | --- | --- | --- | --- | --- |
| GTCGTGC | 0.0887 | 0.0711 | 0.305 | 0.63 | 0.0126 | 0.835 | 0.0996 | 0.0886 | 0.114 | 0.0456 |
| CGTGACG | 0.0677 | -0.142 | -0.659 | -0.443 | -0.0337 | -0.691 | -0.027 | -0.175 | -0.14 | -0.105 |
| AGGTTAG | 0.0401 | 0.0828 | -0.576 | -0.322 | 0.181 | -1.06 | 0.217 | 0.0979 | 0.0837 | 0.0887 |
| ATTCGAA | -0.00171 | -0.0884 | -0.219 | -0.516 | -0.0618 | -1.06 | -0.11 | -0.0485 | -0.0329 | -0.13 |
| TCGTGTT | -3.18 | -1.33 | -2.66 | -3.19 | -2.54 | -0.717 | -3.44 | -0.887 | -0.0451 | -2.01 |
| GTAGAAG | 0.0343 | -0.029 | -0.149 | -0.0949 | -0.161 | -0.676 | 0.0761 | 0.16 | 0.0566 | 0.00223 |
| ACTCCAA | 0.122 | 0.0488 | 0.0231 | -0.165 | 0.122 | -0.484 | 0.00534 | 0.0857 | -0.0363 | 0.213 |
| ACATGAG | -0.0411 | 0.0805 | -0.254 | 1.07 | 0.122 | 0.266 | 0.253 | 0.0659 | 0.319 | 0.0664 |
| CTCTTGT | -0.383 | -0.18 | -0.421 | -0.993 | -0.00426 | -0.99 | -0.815 | -0.323 | -0.143 | -0.0844 |
| GGATCCG | 0.0918 | 0.00451 | -0.33 | -0.374 | -0.0121 | -0.718 | 0.0721 | -0.079 | -0.0926 | -0.0481 |
| TGGCCTG | -0.0727 | -0.0232 | 0.108 | 0.603 | -0.103 | 1.23 | -0.0165 | -0.00765 | -0.105 | -0.036 |
| TTCTGTC | 0.101 | 0.0576 | 0.124 | -0.172 | -0.0242 | -0.773 | -0.106 | -0.224 | -0.0588 | 0.0429 |
| ATATTAC | -3.15 | 0.0307 | -1.8 | -2.64 | 0.0991 | -1.74 | -3.01 | -0.346 | 0.0816 | -0.511 |
| GCGTTAC | 0.0498 | 0.0599 | 0.141 | -0.298 | 0.0975 | 0.175 | 0.0683 | 0.0741 | 0.0988 | 0.12 |
| AGCTTCT | -0.369 | -0.0893 | -0.0123 | -1.33 | -0.00615 | 0.105 | -2.43 | 0.0113 | 0.0279 | -0.072 |
| CTTCGAA | -0.0734 | -0.101 | -0.228 | -0.595 | -0.00818 | -0.993 | 0.0263 | -0.0452 | -0.121 | -0.0302 |
| TGAGTTC | 0.0174 | -0.0594 | 0.178 | -0.203 | -0.0881 | 0.233 | -0.0623 | -0.0731 | -0.0674 | -0.127 |
| TAAGGTG | 0.193 | 0.0489 | 0.109 | 0.319 | 0.155 | 0.312 | 0.179 | 0.159 | -0.0823 | 0.0397 |
| AGCATAA | -0.0884 | -0.0297 | -0.287 | -0.147 | -0.0514 | -0.218 | -0.498 | 0.0256 | -0.063 | 0.0115 |
| AACAGGA | 0.0975 | 0.0311 | 0.19 | 0.501 | 0.0206 | -0.255 | 0.164 | -0.00836 | -0.0406 | 0.0649 |
| GACCGAG | 0.0543 | 0.0641 | 0.777 | 1.74 | 0.0331 | 1.55 | 0.216 | 0.00605 | 0.0993 | 0.205 |
| GGTTCGC | -0.0394 | -0.14 | 0.158 | 0.573 | -0.0817 | 0.512 | 0.0157 | -0.0788 | -0.0261 | -0.0214 |
| AAACTTG | 0.0229 | 0.0476 | -0.317 | -1.59 | 0.141 | -0.581 | 0.161 | 0.0458 | 0.0828 | 0.00203 |
| TCTCGGT | 0.0601 | 0.0132 | 0.441 | 0.816 | -0.103 | 1.23 | 0.0653 | 0.0684 | -0.00567 | -0.097 |
| CAGACTT | -0.0588 | -1.86 | -0.0449 | -0.379 | -0.92 | 1.22 | -3.32 | -0.124 | -0.023 | -0.0192 |
| GTCGAGA | 0.0343 | 0.115 | 0.807 | 1.55 | 0.0811 | 2.07 | 0.203 | 0.0735 | 0.212 | 0.229 |
| GCGCCTT | -0.0371 | -0.0821 | 0.0343 | -0.0899 | -0.0655 | 0.838 | -0.147 | -0.063 | -0.00863 | 0.0924 |
| CTGCGTC | -0.0151 | -0.0494 | -0.711 | -0.731 | -0.0242 | -1.08 | 0.00386 | -0.165 | -0.103 | -0.26 |
| CCATACG | 0.0932 | -0.000763 | -0.783 | 0.127 | -0.0374 | -0.78 | 0.0871 | -0.0489 | 0.0441 | -0.0456 |
